This is one part of the list. Read counts after selection give these values, which scatter widely. Each score is taken over the longer molecules that contain the sequence shown.
What follows are sequences tested on IMP3 KH1-4 (assay: 6-mer SELEX enrichment z-score vs GST control; IMP3 is the RNA-binding protein IGF2BP3; higher = more enriched by binding). Conditions: construct: KH1-4 (164-579); SELEX round: R4.
Protocol: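 SELEX-seq with GST-tagged IMP3 KH1-4 (Pro164-Lys579) and an N40 RNA pool, round 4. 6-mer z-score of sequence-tag enrichment normalised to the corresponding GST SELEX round; RNA k-mers written as DNA (T for U).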

IMP3 KH1-4, sequence (chain, as listed by the source): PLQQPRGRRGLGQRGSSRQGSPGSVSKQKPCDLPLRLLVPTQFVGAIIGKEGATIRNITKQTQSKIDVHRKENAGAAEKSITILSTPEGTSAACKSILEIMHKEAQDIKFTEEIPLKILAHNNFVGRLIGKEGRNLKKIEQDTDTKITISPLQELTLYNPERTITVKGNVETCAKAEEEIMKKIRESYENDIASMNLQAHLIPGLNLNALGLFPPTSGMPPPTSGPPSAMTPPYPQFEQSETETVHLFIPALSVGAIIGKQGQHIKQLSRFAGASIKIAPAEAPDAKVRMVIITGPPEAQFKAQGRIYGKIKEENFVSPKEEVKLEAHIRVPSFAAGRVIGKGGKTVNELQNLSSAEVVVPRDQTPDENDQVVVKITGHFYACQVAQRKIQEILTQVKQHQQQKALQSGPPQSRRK

**Q.** For ACAGCC, which “6-mer SELEX enrichment z-score” value is on record?
**A.** Its value is -0.254.

**Q.** For ATTCCC, which “6-mer SELEX enrichment z-score” value is on record?
**A.** The value was 0.221.

**Q.** Which “6-mer SELEX enrichment z-score” value does the source give for ACACTC here?
**A.** Its value is -0.182.

**Q.** With TAACCA as the sequence, how does the “6-mer SELEX enrichment z-score” value read?
**A.** Its value is -0.259.

**Q.** With GCGCGC as the sequence, how does the “6-mer SELEX enrichment z-score” value read?
**A.** The value was -0.128.

**Q.** For TCATCG, which “6-mer SELEX enrichment z-score” value is on record?
**A.** The value was 0.252.

**Q.** Which “6-mer SELEX enrichment z-score” value does the source give for AAAAAT here?
**A.** The value was -0.098.

**Q.** For GATTTG, which “6-mer SELEX enrichment z-score” value is on record?
**A.** The value was 0.529.

**Q.** How did the “6-mer SELEX enrichment z-score” value turn out when TAATTC was run?
**A.** Its value is 1.07.

**Q.** How did the “6-mer SELEX enrichment z-score” value turn out when TGTCAA was run?
**A.** The value was -0.363.

**Q.** Which “6-mer SELEX enrichment z-score” value does the source give for CTCAAC here?
**A.** The value was -1.02.

**Q.** For CAGTAA, which “6-mer SELEX enrichment z-score” value is on record?
**A.** The value was 0.696.

**Q.** CAGTTC was tested. Which “6-mer SELEX enrichment z-score” value did it give?
**A.** Its value is 0.518.

**Q.** How did the “6-mer SELEX enrichment z-score” value turn out when CCCGGA was run?
**A.** The value was -1.28.

**Q.** Which “6-mer SELEX enrichment z-score” value does the source give for AAGTAT here?
**A.** The value was 0.107.

**Q.** How did the “6-mer SELEX enrichment z-score” value turn out when AACGGA was run?
**A.** The value was -0.209.

**Q.** How did the “6-mer SELEX enrichment z-score” value turn out when TAATTT was run?
**A.** Its value is 1.26.

**Q.** How did the “6-mer SELEX enrichment z-score” value turn out when TCAACC was run?
**A.** The value was -0.579.

**Q.** Which “6-mer SELEX enrichment z-score” value does the source give for CAAGAA here?
**A.** Its value is -0.231.

**Q.** How did the “6-mer SELEX enrichment z-score” value turn out when AATGGT was run?
**A.** Its value is 0.129.

**Q.** Which “6-mer SELEX enrichment z-score” value does the source give for GGTACG here?
**A.** Its value is -0.3.

**Q.** Which “6-mer SELEX enrichment z-score” value does the source give for ACTTCC here?
**A.** Its value is 0.473.

**Q.** Which “6-mer SELEX enrichment z-score” value does the source give for TGTTGC here?
**A.** Its value is -0.07.

**Q.** TCCAGA was tested. Which “6-mer SELEX enrichment z-score” value did it give?
**A.** Its value is -0.173.

**Q.** CAATGT was tested. Which “6-mer SELEX enrichment z-score” value did it give?
**A.** Its value is 0.369.

**Q.** TTAGCT was tested. Which “6-mer SELEX enrichment z-score” value did it give?
**A.** The value was 0.144.

**Q.** For CCTTCT, which “6-mer SELEX enrichment z-score” value is on record?
**A.** The value was 0.319.

**Q.** TGGGCC was tested. Which “6-mer SELEX enrichment z-score” value did it give?
**A.** Its value is -0.694.

**Q.** How did the “6-mer SELEX enrichment z-score” value turn out when TAGTCA was run?
**A.** The value was 0.173.

**Q.** Which “6-mer SELEX enrichment z-score” value does the source give for ACCTCA here?
**A.** Its value is -0.943.

**Q.** How did the “6-mer SELEX enrichment z-score” value turn out when GGCTAG was run?
**A.** Its value is -0.026.

**Q.** Which “6-mer SELEX enrichment z-score” value does the source give for TGCTGA here?
**A.** Its value is -0.235.

**Q.** Which “6-mer SELEX enrichment z-score” value does the source give for GCTGTA here?
**A.** Its value is -0.056.

**Q.** With TGCGCC as the sequence, how does the “6-mer SELEX enrichment z-score” value read?
**A.** The value was -0.457.

**Q.** How did the “6-mer SELEX enrichment z-score” value turn out when CAAGGC was run?
**A.** Its value is 0.038.

**Q.** How did the “6-mer SELEX enrichment z-score” value turn out when CCTTAC was run?
**A.** Its value is -0.122.

**Q.** How did the “6-mer SELEX enrichment z-score” value turn out when CGCAGG was run?
**A.** The value was 0.067.

**Q.** How did the “6-mer SELEX enrichment z-score” value turn out when GGATGA was run?
**A.** Its value is 1.01.

**Q.** How did the “6-mer SELEX enrichment z-score” value turn out when GGGAGT was run?
**A.** Its value is 0.741.

**Q.** For TGGATA, which “6-mer SELEX enrichment z-score” value is on record?
**A.** Its value is 0.441.
